Source: the antibiotic and cytotoxicity screens of Wong et al. (2023)
The list shows a part of the results.

Experiments:
HSkMC = human skeletal muscle cells; experiment: cytotoxicity call (relative viability < 0.9); conditions: 10 µM
HepG2 = experiment: cytotoxicity call (relative viability < 0.9); conditions: 10 µM
S. aureus RN4220 = experiment: growth inhibition call (relative growth <= 0.2); conditions: 50 µM

| Compound | cytotoxicity call (HSkMC) | cytotoxicity call (HepG2) | growth inhibition call (S. aureus RN4220) |
| --- | --- | --- | --- |
| C=CCOC(=O)[C@H]1[C@@H]2C(=O)O[C@@H](c3ccccc3)[C@@H](c3ccccc3)N2[C@@H](c2ccc(OCCOC(=O)[C@H]3C[C@H]4C(=O)N[C@@H](CCCC[N+](C)(C)C)C(=O)N4[C@H]3c3cccc(OCCO)c3)cc2)[C@]12C(=O)Nc1ccc(I)cc12 | inactive | inactive | inactive |
| OC1(c2ccc(Cl)c(C(F)(F)F)c2)CCN(CCCC(c2ccc(F)cc2)c2ccc(F)cc2)CC1 | active | active | active |
| Cc1ccc(S(=O)(=O)N[C@@H]2C=C[C@@H](CC(=O)NCCN3CCCCC3)O[C@@H]2CO)cc1 | inactive | inactive | inactive |
| CC1(C)C(=O)C=CC2(C)C1CC(=O)C1(C)C2CCC2(C)C(c3ccoc3)OC(=O)C3OC321 (stereo not drawn) | inactive | active | inactive |
| CON=C(C(=O)N[C@@H]1C(=O)N2C(C(=O)O)=C(CSc3nc(=O)c(O)nn3C)CS[C@H]12)c1csc(N)n1 | inactive | inactive | active |
| Cc1ccc(S(=O)(=O)Nc2ccc3c(c2)C(=O)N([C@@H](C)CO)C[C@H](C)[C@H](CN(C)S(=O)(=O)c2ccc(Cl)cc2)OCCCC[C@@H](C)O3)cc1 | inactive | inactive | inactive |
| C[C@H](CO)N1C[C@H](C)[C@@H](CN(C)Cc2ccc(Cl)c(Cl)c2)Oc2c(NC(=O)Nc3ccc4c(c3)OCO4)cccc2C1=O | active | inactive | inactive |
| CC(C)(C)[C@H]1C=C(C(=O)N2CCN(Cc3ccccc3)CC2)O[C@@H](OCc2ccc(COC(=O)NCCCCCC(=O)NO)cc2)C1 | inactive | inactive | inactive |
| COc1ccccc1-c1cc(=O)c2c(OC)cccc2o1 | inactive | inactive | inactive |
| C[C@@H]1CCCCO[C@@H](CN(C)S(C)(=O)=O)[C@@H](C)CN([C@@H](C)CO)C(=O)c2cc(NC(=O)CCCN(C)C)ccc2O1 | inactive | inactive | inactive |
| C[C@@H]1CN([C@H](C)CO)C(=O)c2cc(NS(=O)(=O)c3cn(C)cn3)ccc2O[C@H]1CN(C)S(C)(=O)=O | inactive | inactive | inactive |
| C[C@@H]1CN([C@H](C)CO)C(=O)c2cccc(NC(=O)c3ccc(-c4nccs4)cc3)c2O[C@@H]1CN(C)C(=O)NC1CCCCC1 | inactive | inactive | inactive |
| COC(=O)c1cn(CCNC(=O)[C@@H](NS(=O)(=O)c2ccc(C)cc2)C(C)C)nn1 | inactive | inactive | inactive |
| CN1CCN(C(=O)C[C@@H]2C=C[C@@H](NC(=O)Nc3ccccc3F)[C@@H](CO)O2)CC1 | inactive | inactive | inactive |
| C[C@@H]1CN([C@@H](C)CO)C(=O)c2cccc(N(C)C)c2O[C@@H]1CN(C)S(C)(=O)=O | inactive | inactive | inactive |
| O=C1NC(=O)[C@@]2(CCOc3ccc(F)cc32)N1 | inactive | inactive | inactive |
| C[C@H](CO)N1C[C@H](C)[C@@H](CN(C)Cc2ccc(-c3ccccc3)cc2)Oc2ccc(NS(=O)(=O)c3ccc(F)cc3)cc2C1=O | inactive | active | inactive |
| C=C(CC)C(=O)c1ccc(OCC(=O)O)c(Cl)c1Cl | inactive | inactive | inactive |
| CC(=O)OCC[N+](C)(C)C.[Cl-] | inactive | inactive | inactive |
| C[C@@H]1CN([C@H](C)CO)C(=O)c2cc(NC(=O)CCC(F)(F)F)ccc2O[C@@H](C)CCCCO[C@@H]1CN(C)CC1CCCCC1 | inactive | inactive | inactive |
| C[C@H]1CN([C@@H](C)CO)C(=O)Cc2cc(NS(C)(=O)=O)ccc2O[C@H]1CN(C)S(=O)(=O)c1cccs1 | inactive | inactive | inactive |
| C[C@@H]1CN([C@@H](C)CO)C(=O)Cc2cc(NS(=O)(=O)c3ccccc3)ccc2O[C@@H]1CN(C)CC1CC1 | inactive | inactive | inactive |
| C[C@H](CO)N1C[C@H](C)[C@@H](CN(C)C(=O)Nc2cccc3ccccc23)Oc2ccc(NC(=O)Nc3ccc4c(c3)OCO4)cc2CC1=O | active | inactive | inactive |
| C[C@@H]1CN([C@@H](C)CO)C(=O)c2cc(N(C)C)ccc2O[C@@H](C)CCCCO[C@H]1CN(C)Cc1ccc(C(=O)Nc2ccccc2N)cc1 | inactive | inactive | inactive |
| C[C@@H]1CN([C@@H](C)CO)C(=O)CCCn2cc(nn2)CO[C@@H]1CN(C)C(=O)Nc1ccc(N2CCCCC2)cc1 | inactive | inactive | inactive |
| CC(C)C#Cc1ccc2c(c1)O[C@H](CN(C)C(=O)c1cccc(F)c1)[C@@H](C)CN([C@H](C)CO)S2(=O)=O | inactive | inactive | inactive |
